# Results filed as inconclusive are left out. Calls follow the shape of the dose curve; as a rule, active = well fitted curve in the direction sought with a large enough effect in the repeat runs; inconclusive = weak or mixed curves; inactive = no such curve, though single readings can be large; an effect the other way counts as inactive or inconclusive. Where a structure was tested more than once in an assay, its records may differ in their call. Some entries of the source have several records that differ or are many. Only these are listed. There may be further records. The values listed for one entry repeat one measurement across runs, samples, wells, individuals or studies. Marks in square brackets tell the records apart. The letters are not those of the source and start again with each entry.
# Key:
# [1] = qHTS assay to identify small molecule antagonists of the glucocorticoid receptor (GR) signaling pathway - cell viability counter screen (AID 720693); also: nearly all actives have a fitted effect of over 55% in size
# [2] = qHTS assay to identify small molecule antagonists of the peroxisome proliferator-activated receptor gamma (PPARg) signaling pathway - cell viability counter screen (AID 743194); also: nearly all actives have a fitted effect of over 55% in size
# How it was run: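 Cytotoxicity counter screen in PPARg-bla HEK293H cells, same wells as reporter assay. Compounds plus 50 nM rosiglitazone (final) for 17 h at 37 C, then viability read by CellTiter-Glo luminescence.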
# [3] = qHTS assay to identify small molecule antagonists of the thyroid receptor (TR) signaling pathway (AID 743065); also: nearly all actives have a fitted effect of over 55% in size
# How it was run: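 GH3.TRE-Luc rat pituitary cells (two TREs driving luciferase) were dosed with compound, then stimulated with 1 nM T3 (final) for 23.5 h at 37 C. ONE-Glo luminescence was the read-out, with CellTiter-Fluor fluorescence as the cytotoxicity counter-screen.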
# [4] = A CellTox Green Cytotoxicity Assay to monitor cytotoxicity in HEK293 cells - 24 hour (AID 1224875); also: nearly all actives have a fitted effect of over 45% in size
# How it was run: (§1)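 Each value comes from one timepoint of a single continuous run in which HEK293 cells with CellTox Green were exposed to compound for up to 40 h at 37 C, dye fluorescence rising with cell death.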
# [5] = qHTS assay to identify small molecule antagonists of the progesterone receptor (PR) signaling pathway - cell viability counter screen (AID 1346798); also: nearly all actives have a fitted effect of over 50% in size
# How it was run: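 Counter screen for cytotoxicity: viability of PR-UAS-bla HEK293T cells was measured with CellTiter-Glo luminescence following 16 hr compound exposure in the presence of R5020.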
# [6] = A CellTox Green Cytotoxicity Assay to monitor cytotoxicity in HEK293 cells - 16 hour (AID 1224888); also: nearly all actives have a fitted effect of over 35% in size
# How it was run: as §1
# Potency is read from the fitted curve at half-maximal effect.
smiles,measurement,setting,value
O=C(CCl)c1ccc(Cl)cc1Cl,Potency,[1],active: 6.01 µM [sample A] and active: 13.8 µM [sample B] and inactive [sample C]
same,Potency,[2],inactive [sample A] and active: 23.7 µM [sample B]
C(=NC1CCCCC1)=NC1CCCCC1,Potency,[3],inactive [sample A] and active: 9.69 µM [sample B]
Cn1sc(Cl)cc1=O,Potency,[3],inactive [sample A] and active: 61.1 µM [sample B]
Brc1ccc(Oc2ccccc2)cc1,Potency,[4],active: 50.2 µM [sample A] and inactive [sample B]
same,Potency,[5],active: 55.8 µM [sample A] and inactive [sample B]
CCOP(=S)(OCC)Oc1nc(Cl)c(Cl)cc1Cl,Potency,[4],active: 43.8 µM [sample A] and inactive [sample B]
same,Potency,[6],active: 49.1 µM [sample A] and inactive [sample B]

# Reference: PubChem BioAssay (Tox21)
